Assay results reported in PubChem BioAssay AID485294 (National Center for Advancing Translational Sciences (NCATS), 2010).
Screen size: about 370,000 compounds; about 150 (0.041%) were called active. The shares of active, inactive and inconclusive entries below differ from those in the screen. The call rests on the fitted dose curve; in most records, active means well fitted inhibition curve with a large enough effect; inconclusive means small, poorly fitted or top-dose-only effect; inactive means flat fitted curve, though single readings scatter. Potencies of inconclusive entries are left out as doubtful fits.

target: Beta-lactamase (Escherichia coli (strain K12)) (UniProt P00811); assay: qHTS Inhibitors of AmpC Beta-Lactamase (assay with detergent); conditions: AmpC hydrolysis of nitrocefin, absorbance 480 nm, 0.01% Triton; series mostly up to 114 µM; further: nearly all actives have a fitted effect of over 25% in size
Summary of the method: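 AmpC (5.3 nM in the dispensed reagent) in 20 mM phosphate pH 7.0 with 0.01% (detergent screen) or 0.0001% Triton X-100 was preincubated with compounds for 15 min at room temperature. Nitrocefin was then added from an 800 uM solution, and hydrolysis was followed at 480 nm.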
Potency means the concentration at half of the fitted maximal effect; tags describe the fitted curve by direction and shape.

Chain of UniProt P00811 (P00811 whole entry, looked up): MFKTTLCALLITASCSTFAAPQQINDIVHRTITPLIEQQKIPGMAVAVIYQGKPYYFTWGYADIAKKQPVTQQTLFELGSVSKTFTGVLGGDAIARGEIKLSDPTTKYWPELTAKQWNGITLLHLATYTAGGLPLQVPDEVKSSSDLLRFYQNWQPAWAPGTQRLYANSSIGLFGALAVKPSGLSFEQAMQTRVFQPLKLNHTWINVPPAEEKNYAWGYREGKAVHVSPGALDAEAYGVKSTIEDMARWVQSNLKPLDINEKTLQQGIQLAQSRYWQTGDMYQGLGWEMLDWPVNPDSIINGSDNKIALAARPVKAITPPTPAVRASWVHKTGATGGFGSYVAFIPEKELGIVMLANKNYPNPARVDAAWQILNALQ

Row | Structure (SMILES) | Potency
1 | Cc1ccc(OCC(=O)N2CCN(c3nnc(-c4ccc(C)cc4)c4ccccc34)CC2)cc1 | inconclusive [inhibitor, full curve, poor fit]
2 | CC(=O)c1cccc(NC2c3ccccc3C(=O)N2Cc2ccco2)c1 (centres undefined) | inactive
3 | O=C(CN1C(=O)CC(c2ccco2)Sc2ccccc21)Nc1ccc2c(c1)OCCO2 (centres undefined) | inconclusive [inhibitor, full curve, poor fit]
4 | CC(=O)c1cnc2sccn2c1=O | inconclusive [inhibitor, full curve, poor fit]
5 | CN(C)c1ccc(/C=C/C=C2/SC(=S)N(c3ccccc3)C2=O)cc1 | inactive
6 | Cc1cccc(-n2c(-c3csc(C(C)C)c3)n[nH]c2=S)c1 | inconclusive [inhibitor, partial curve, poor fit]
7 | CCOc1cccc(CNc2ccc(O)cc2)c1OCc1ccc(Cl)cc1 | inactive
8 | CN(C)CCCNc1ncnc2c1c(-c1ccccc1)cn2-c1ccccc1 | inconclusive [inhibitor, partial curve, poor fit]
9 | CCOC(=O)c1ccc(N2C(=O)CC(NC3CCN(C(=O)c4cccc(Cl)c4)CC3)C2=O)cc1 (centres undefined) | inconclusive [inhibitor, full curve]
10 | CC(=O)Oc1ccccc1/C=C1\CCOC1=O | inconclusive [inhibitor, single point]
11 | O=C(Nc1cc2ccccc2oc1=O)C1CCCCC1 | inconclusive [inhibitor, partial curve]
12 | CCCCn1c(N)c(N(CCOC)C(=O)c2cc3c(s2)CCC(C)C3)c(=O)[nH]c1=O (centres undefined) | inconclusive [inhibitor, partial curve]
13 | O=C(CN1C(=O)C2C3C=CC(C3)C2C1=O)Nc1nc(SCc2ccc(Cl)cc2)n[nH]1 (centres undefined) | inconclusive [inhibitor, full curve, poor fit]
14 | CCn1cc(C(=O)O)c(=O)c2cc(F)c(N3CCN(C(=S)NC(=O)c4ccc(Br)cc4)CC3)cc21 | inactive
15 | O=[N+]([O-])c1ccccc1/C=C/CN1CCSCC1 | inconclusive [inhibitor, full curve]
16 | CC(C)C[C@H](NC(=O)N1CCn2c1nc1ccccc12)C(=O)N[C@H](Cc1ccccc1)C(=O)O | inconclusive [inhibitor, full curve, poor fit]
17 | COc1ccc(NC(=O)CCc2nnc3ccc(NCc4ccc5c(c4)OCO5)nn23)cc1 | inconclusive [inhibitor, partial curve, poor fit]
18 | CCOc1ccc(C2CC(c3ccccc3C)n3ncnc3N2)cc1 (centres undefined) | inconclusive [inhibitor, full curve, poor fit]
19 | Cc1sc2ncnc(N3CCC(C(=O)NNC(=O)c4ccc(Cl)cc4)CC3)c2c1C | inactive
20 | Cc1nc2ccc(S(=O)(=O)NC(C(=O)NCc3ccc4c(c3)OCO4)C(C)C)cc2s1 (centres undefined) | inconclusive [inhibitor, full curve]
21 | COc1ccccc1O | inconclusive [inhibitor, full curve]
22 | NS(=O)(=O)c1ccc(CCNC(=O)C2CCN(S(=O)(=O)c3ccc(Br)s3)CC2)cc1 | inactive
23 | COC(=O)c1c(NC(=O)CSc2nnc(Cn3nnc4ccccc43)n2C)sc(C)c1C | inconclusive [inhibitor, full curve, poor fit]

Row | Structure (SMILES) | Potency
24 | CC1=Nc2ncnn2C(c2ccccc2)/C1=N\O (centres undefined) | inconclusive [inhibitor, full curve, poor fit]
25 | c1ccc2c(N3CCCC3)nc(-c3ccncc3)nc2c1 | inconclusive [inhibitor, single point]
26 | O=C(CCn1c(=O)sc2ccccc21)NCc1ccccc1 | inconclusive [inhibitor, single point]
27 | CNC(=O)C1CCN(S(=O)(=O)c2c(C)noc2/C=C/c2ccccc2F)CC1 | inconclusive [inhibitor, partial curve]
28 | COc1cc(/C=c2/sc3nc(-c4ccccc4)c(-c4ccccc4)n3c2=O)cc(OC)c1OC | inconclusive [inhibitor, full curve]
29 | O=S(=O)(Nc1ccc2c(c1)OCCO2)c1cccc2nsnc12 | inconclusive [inhibitor, partial curve, poor fit]
30 | O=C(c1ccccc1)[C@@H]1[C@@H](C(=O)c2ccc(F)cc2)[C@@]2(C(=O)Nc3ccccc32)[C@H]2c3ccccc3C=CN12 | inactive
31 | Cc1ccc(S(=O)(=O)n2nc(OC(=O)C3CCCCC3)cc2N)cc1 | inconclusive [inhibitor, single point]
32 | O=C(C[n+]1ccccc1)Nc1c(Cl)cc(Cl)cc1Cl | inactive
33 | O=C(N/N=C/c1cc(Br)ccc1O)c1ccncc1 | inactive
34 | Cc1cccc(S(=O)(=O)c2cn(C)c3cc(N4CCC(C)CC4)c(F)cc3c2=O)c1 | inactive
35 | COc1ccc(OC)c(-c2csc(NC(=O)CSc3nnnn3C)n2)c1 | inconclusive [inhibitor, full curve, poor fit]
36 | CCOc1ccc(C2CC(c3cccc(C)c3)n3nc(N)nc3N2)cc1 (centres undefined) | inconclusive [inhibitor, full curve, poor fit]
37 | COc1ccccc1N(CC(=O)NCCSC(C)(C)C)S(C)(=O)=O | inconclusive [inhibitor, full curve, poor fit]
38 | CC(NC(=O)CCc1c[nH]c2ccccc12)c1ccccc1 (centres undefined) | inactive
39 | CCN(CC)CCOCCOc1cc(C)c(Cl)c(C)c1 | inconclusive [inhibitor, full curve, poor fit]
40 | O=S(=O)(NCc1cccnc1)c1ccc(Cl)c2ccccc12 | inconclusive [inhibitor, full curve, poor fit]
41 | CCn1c(=S)sc2c(=O)n(-c3ccccc3)c(SC)nc21 | inactive
42 | N#Cc1c(NC(=S)NC(=O)Cc2cccs2)sc2c1CCCCC2 | inconclusive [inhibitor, partial curve]
43 | C/C(=N\NC(=S)NC(C)C)c1ccc(Cl)s1 | inconclusive [inhibitor, single point]
44 | Cc1c(Cl)cccc1NC(=O)Nc1ccc2snnc2c1 | inactive
45 | O=C(CSc1cn(CCNC(=O)c2cccs2)c2ccccc12)NC1CCCCC1 | inconclusive [inhibitor, full curve, poor fit]
46 | CC(OC(=O)CCCOc1ccccc1)C(=O)Nc1ccc(Cl)cn1 (centres undefined) | inconclusive [inhibitor, single point]

Row | Structure (SMILES) | Potency
47 | COC(=O)c1ccc(CNC(=O)c2ccc(S(=O)(=O)N(C)c3ccccc3OC)cc2)cc1 | inactive
48 | O=C(COC(=O)c1ncc(Cl)c(Cl)c1Cl)NC1CCCCCC1 | inactive
49 | C=CCNc1ncnc2c1[nH]c1ccc(C)cc12 | inconclusive [inhibitor, partial curve]
50 | CCOC(=O)c1ccc(NC(=O)c2cc3c(s2)CCC3)cc1 | inconclusive [inhibitor, partial curve, poor fit]
51 | COc1ccc(C2NC(=O)NC(C)=C2[N+](=O)[O-])cc1 (centres undefined) | inconclusive [inhibitor, full curve, poor fit]
52 | Cc1cc(-c2ccccc2)nc(N(C)NC(=O)C2CC2)c1S(C)(=O)=O | inconclusive [inhibitor, full curve, poor fit]
53 | Cc1ccc(C(C)C)c(OCC(=O)NNC(=O)Cn2[nH]c(=O)c3ccccc3c2=O)c1 | inactive
54 | Cc1ccnc(NC(=O)c2cccc(OC(F)F)c2)n1 | inconclusive [inhibitor, partial curve, poor fit]
55 | O=C1CCC(C(=O)Nc2cccc(C(F)(F)F)c2)N1 (centres undefined) | inconclusive [inhibitor, full curve, poor fit]
56 | O=C(Cc1ccccc1)Nc1ccc(N2CCOCC2)cc1 | inactive
57 | CSc1ccc(/C=C/C(=O)c2ccc(NC(=O)C(C)C)cc2)cc1 | inconclusive [inhibitor, single point]
58 | CCOc1ccc(S(=O)(=O)N2CCN(C(=O)CN3C(=O)NC4(CCCC4)C3=O)CC2)cc1 | inconclusive [inhibitor, full curve]
59 | COC(=O)Cc1c(O)ccn(CCc2c[nH]c3ccccc23)c1=O | inactive
60 | COC(=O)C1=C(C)Nc2nnnn2C1c1cc(OC)ccc1OC (centres undefined) | inconclusive [inhibitor, full curve]
61 | COC(=O)c1ccc2nc(C)cc(Nc3cccc(Cl)c3C)c2c1 | inactive
62 | O=C(NCCC1=CCCCC1)c1ccc(=O)oc1 | inconclusive [inhibitor, full curve]
63 | CCC(C)Nc1nc(CN2CCOCC2)nc2sc3c(c12)CCC3 (centres undefined) | inactive
64 | Cc1occc1C(=O)Nc1ccc(Br)cc1F | inactive
65 | CC(C)Cn1c(SCC(=O)NCCCN2CCCC2=O)nc2ccccc21 | inconclusive [inhibitor, single point]
66 | O=C(OCc1c(F)cccc1Cl)c1cnc(Cl)c(Cl)c1 | inactive
67 | COc1ccc(/C=C2\CC/C(=C\c3ccc(OC)cc3OC)C2=O)c(OC)c1 | inconclusive [inhibitor, single point]
68 | COc1ccc(CCNC(=O)c2ccc(N(C)S(=O)(=O)c3ccc(C)cc3)cc2)cc1 | inconclusive [inhibitor, full curve, poor fit]
69 | Cn1c(SCc2ccccn2)nnc1-c1ccccc1 | inactive
